# From publication PMC5440653
# Chains of the proteins cited; added tags and fusions are not shown. Lines headed by an entry give the natural chain unless they say otherwise; changes in a name come on top. Residues count along the entry.
# UniProt Q92673: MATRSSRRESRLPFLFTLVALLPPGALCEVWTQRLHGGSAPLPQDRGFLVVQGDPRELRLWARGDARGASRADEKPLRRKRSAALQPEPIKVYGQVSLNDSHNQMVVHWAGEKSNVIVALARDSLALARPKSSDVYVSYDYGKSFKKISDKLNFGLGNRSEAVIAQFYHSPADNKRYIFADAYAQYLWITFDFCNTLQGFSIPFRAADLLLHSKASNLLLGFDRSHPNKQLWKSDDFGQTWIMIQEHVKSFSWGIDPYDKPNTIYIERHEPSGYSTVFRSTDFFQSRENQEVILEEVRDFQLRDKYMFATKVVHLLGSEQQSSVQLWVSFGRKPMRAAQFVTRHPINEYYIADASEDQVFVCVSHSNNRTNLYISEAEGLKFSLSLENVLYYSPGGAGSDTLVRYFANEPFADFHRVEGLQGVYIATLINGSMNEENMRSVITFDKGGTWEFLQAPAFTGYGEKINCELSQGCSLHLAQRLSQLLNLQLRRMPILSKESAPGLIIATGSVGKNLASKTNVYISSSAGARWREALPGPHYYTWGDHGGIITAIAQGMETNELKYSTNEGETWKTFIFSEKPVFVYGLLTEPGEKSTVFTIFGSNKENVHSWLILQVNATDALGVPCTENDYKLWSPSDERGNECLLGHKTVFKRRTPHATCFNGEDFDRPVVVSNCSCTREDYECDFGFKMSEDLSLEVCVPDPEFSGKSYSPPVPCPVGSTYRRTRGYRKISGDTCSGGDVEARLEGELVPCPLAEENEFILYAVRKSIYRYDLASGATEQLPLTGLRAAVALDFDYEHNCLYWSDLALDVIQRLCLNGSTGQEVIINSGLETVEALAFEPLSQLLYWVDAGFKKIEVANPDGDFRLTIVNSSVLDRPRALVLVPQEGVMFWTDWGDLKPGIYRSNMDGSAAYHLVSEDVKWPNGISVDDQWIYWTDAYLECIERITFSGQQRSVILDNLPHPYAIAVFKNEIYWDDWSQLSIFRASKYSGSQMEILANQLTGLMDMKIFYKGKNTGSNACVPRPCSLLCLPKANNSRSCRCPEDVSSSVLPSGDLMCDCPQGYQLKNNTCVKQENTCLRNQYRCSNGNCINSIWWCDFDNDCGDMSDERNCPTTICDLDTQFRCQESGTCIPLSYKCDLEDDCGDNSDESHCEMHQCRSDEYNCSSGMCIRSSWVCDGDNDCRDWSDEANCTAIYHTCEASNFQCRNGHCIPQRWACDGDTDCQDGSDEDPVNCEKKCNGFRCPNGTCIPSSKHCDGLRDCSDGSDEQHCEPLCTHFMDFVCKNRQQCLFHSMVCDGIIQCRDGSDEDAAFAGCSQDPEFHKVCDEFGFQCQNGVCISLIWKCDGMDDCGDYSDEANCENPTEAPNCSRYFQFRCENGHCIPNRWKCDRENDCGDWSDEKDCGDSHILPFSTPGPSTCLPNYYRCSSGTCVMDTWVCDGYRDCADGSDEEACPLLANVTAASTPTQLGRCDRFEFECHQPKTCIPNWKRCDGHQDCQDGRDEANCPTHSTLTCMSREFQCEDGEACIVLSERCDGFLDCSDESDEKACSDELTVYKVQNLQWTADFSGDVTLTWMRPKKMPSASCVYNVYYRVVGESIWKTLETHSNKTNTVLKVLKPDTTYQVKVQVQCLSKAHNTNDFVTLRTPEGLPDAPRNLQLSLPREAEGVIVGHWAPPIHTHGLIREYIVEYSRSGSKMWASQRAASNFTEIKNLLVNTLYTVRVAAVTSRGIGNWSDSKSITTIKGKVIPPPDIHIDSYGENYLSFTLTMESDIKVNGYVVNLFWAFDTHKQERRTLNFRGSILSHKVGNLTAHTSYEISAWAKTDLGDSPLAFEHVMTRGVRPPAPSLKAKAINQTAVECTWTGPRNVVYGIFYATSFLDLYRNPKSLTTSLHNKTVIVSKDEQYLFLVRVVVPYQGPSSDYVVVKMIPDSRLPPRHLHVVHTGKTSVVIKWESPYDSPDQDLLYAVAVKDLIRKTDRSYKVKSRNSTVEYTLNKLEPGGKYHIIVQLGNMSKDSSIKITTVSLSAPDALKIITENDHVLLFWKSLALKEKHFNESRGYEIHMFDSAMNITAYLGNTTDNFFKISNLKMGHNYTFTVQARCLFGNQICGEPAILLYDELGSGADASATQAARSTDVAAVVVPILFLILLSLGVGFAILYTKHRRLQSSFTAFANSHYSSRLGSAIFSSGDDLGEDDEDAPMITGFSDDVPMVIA
# UniProt P08887: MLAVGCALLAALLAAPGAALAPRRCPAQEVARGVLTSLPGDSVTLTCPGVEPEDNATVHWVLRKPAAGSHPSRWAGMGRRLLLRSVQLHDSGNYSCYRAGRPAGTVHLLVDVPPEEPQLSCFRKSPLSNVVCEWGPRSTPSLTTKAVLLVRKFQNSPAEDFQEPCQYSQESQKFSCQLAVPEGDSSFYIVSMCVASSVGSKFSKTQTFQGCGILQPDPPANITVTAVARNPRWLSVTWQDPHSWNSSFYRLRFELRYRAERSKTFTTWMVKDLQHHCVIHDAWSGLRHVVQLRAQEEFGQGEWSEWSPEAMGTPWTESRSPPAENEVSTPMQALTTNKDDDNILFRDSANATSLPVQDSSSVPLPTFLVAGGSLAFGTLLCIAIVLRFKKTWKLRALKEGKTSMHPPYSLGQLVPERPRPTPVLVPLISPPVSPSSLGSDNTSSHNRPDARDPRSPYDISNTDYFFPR
# UniProt P40189: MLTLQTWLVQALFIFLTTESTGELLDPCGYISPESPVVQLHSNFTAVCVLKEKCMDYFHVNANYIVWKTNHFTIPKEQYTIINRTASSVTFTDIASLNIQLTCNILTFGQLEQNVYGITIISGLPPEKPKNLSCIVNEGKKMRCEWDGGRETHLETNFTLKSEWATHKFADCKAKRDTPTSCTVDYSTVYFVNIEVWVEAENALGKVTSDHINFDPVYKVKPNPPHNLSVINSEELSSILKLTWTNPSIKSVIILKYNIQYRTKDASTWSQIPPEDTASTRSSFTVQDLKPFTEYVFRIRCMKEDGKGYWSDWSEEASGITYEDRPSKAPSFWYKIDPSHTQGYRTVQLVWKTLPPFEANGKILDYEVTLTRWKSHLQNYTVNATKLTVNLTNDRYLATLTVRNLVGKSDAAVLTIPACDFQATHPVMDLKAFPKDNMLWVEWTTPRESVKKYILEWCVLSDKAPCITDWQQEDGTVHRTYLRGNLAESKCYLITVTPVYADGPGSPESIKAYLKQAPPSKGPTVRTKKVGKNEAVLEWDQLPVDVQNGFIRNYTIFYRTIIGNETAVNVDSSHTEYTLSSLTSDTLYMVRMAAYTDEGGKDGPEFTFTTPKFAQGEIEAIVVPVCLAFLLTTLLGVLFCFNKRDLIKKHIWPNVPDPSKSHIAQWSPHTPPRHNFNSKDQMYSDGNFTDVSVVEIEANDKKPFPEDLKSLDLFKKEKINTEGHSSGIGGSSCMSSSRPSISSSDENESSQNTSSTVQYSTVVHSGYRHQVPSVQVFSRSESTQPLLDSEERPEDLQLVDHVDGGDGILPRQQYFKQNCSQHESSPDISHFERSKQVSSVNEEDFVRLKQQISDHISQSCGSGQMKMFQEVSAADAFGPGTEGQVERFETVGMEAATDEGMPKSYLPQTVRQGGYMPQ
# soluble human gp130-Fc: residues 23-619 of P40189
# UniProt P05231, residues 30-212: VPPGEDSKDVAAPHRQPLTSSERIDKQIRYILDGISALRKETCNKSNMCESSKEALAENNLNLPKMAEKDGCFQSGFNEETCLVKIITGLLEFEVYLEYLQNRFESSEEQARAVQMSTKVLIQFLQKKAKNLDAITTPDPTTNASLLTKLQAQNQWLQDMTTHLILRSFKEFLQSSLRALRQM
# These are yes or no findings as the source states them, for the method shown. For part of these data: Binding seen in cells or lysates may run through a third protein. Some results given as binding are weak or reduced against the parent protein; the word gives no strength.
# Columns and labels:
# [1] = target: soluble SorLA (SorLA ectodomain, luminal part) (human) (UniProt Q92673); experiment: SPR; competition with neurotensin on immobilized sSorLA; data not shown; both purified
# [2] = target: soluble SorLA (SorLA ectodomain, luminal part) (human) (UniProt Q92673); experiment: SPR; competition: immobilized sSorLA or SorLA Vps10p-D saturated with propeptide (2 uM), then a mixture of propeptide (2 uM) and IL-6 or sIL-6R (100 nM) injected; both purified
# [3] = target: full-length transmembrane IL-6 receptor (human) (UniProt P08887); experiment: co-IP; no cross-linker; transfected HEK293 cells biolabeled with [35S]cysteine and [35S]methionine (4 h, 37°C), lysed, immunoprecipitated with anti-IL-6R, reducing SDS-PAGE and autoradiography
# [4] = target: full-length SorLA (human) (UniProt Q92673); experiment: cross-linking + co-IP; full-length receptors in cells; told in the discussion only, no data shown
# [5] = target: full-length SorLA (human) (UniProt Q92673); experiment: cross-linking; transfected HEK293 cells treated 45 min with the membrane-impermeable, thiol-cleavable cross-linker DTSSP, lysed in 1% Triton X-100, immunoprecipitated with rabbit anti-SorLA, reducing SDS-PAGE, blot for IL-6R
# [6] = target: soluble IL-6 receptor (IL-6R ectodomain) (human) (UniProt P08887); experiment: SPR; competition: immobilized sIL-6R subjected to sSorLA (1 uM), then a mixture of sSorLA (1 uM) and IL-6 (100 nM) injected; both purified
# [7] = target: soluble human gp130-Fc (human) (UniProt P40189); experiment: SPR; data not shown; who was immobilized is not told; both purified
substance,measurement,setting,value
Interleukin-6 (from UniProt P05231 30-212) (ligand),binding,[1],binds
same,binding,[2],binds
full-length SorLA (from UniProt Q92673 82-2214) (receptor),binding,[3],binds
full-length gp130 (from UniProt P40189 23-918) (receptor),binding,[4],no binding
full-length transmembrane IL-6 receptor (from UniProt P08887 20-468),binding,[5],binds
soluble IL-6 receptor (IL-6R ectodomain) (from UniProt P08887 20-365),binding,[1],binds
same,binding,[2],binds
"soluble SorLA (SorLA ectodomain, luminal part) (from UniProt Q92673 82-2137) (receptor)",binding,[6],binds
same,binding,[7],binds
